Laboratory results published in the supplement of paper PMC9334596.
“And” between values parts separate entries of the source, which are not always exact repeats. Equal entries are not always repeated. The full ranking holds about 5,300 compounds; the median of “PER2::LUC luminescence relative to vehicle control” is about 0.96, and the highest 2% start at about 1.3. Some of the results follow.

System: mPer2Luc MEF
Assay: PER2::LUC luminescence relative to vehicle control (fold of vehicle); higher = higher PER2::LUC reporter signal
Conditions: 10 µM
Procedure, shortened: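 The value is PER2::LUC luminescence expressed as fold of vehicle control. Mouse embryonic fibroblasts carrying the mPer2Luc reporter were seeded at ~3000 cells per well in 384-well plates and grown in DMEM with 10% FBS at 37 °C and 5% CO2. Compounds from commercial libraries were added at 10 μM 48 h after seeding, and luminescence was read with the ONE-Glo luciferase assay system 24 h and 30 h after treatment, followed by an alamarBlue viability assay.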

SMILES	PER2::LUC luminescence (time after treatment 24 h)	PER2::LUC luminescence (time after treatment 30 h)
OC(CN1CCC(Cc2ccc(F)cc2)CC1)c1ccc(Cl)cc1 (centres undefined)	0.902	0.912
O=C[C@H](O)[C@H]1OC(=O)[C@@H](O)[C@H]1O	1.14	0.922
Cn1c(COc2ccc(CC3SC(=O)NC3=O)cc2)nc2ccccc2c1=O (centres undefined)	1.03	1.07
CN(C)CCOC(c1ccccc1)c1ccccc1	0.783	0.862
CN1CCN(C(=O)C2C(C(=O)O)[C@H]3CC[C@@H]2O3)CC1 (some centres undefined)	0.665	0.814
O=C(O)CCCCC(=O)O	1.03	1.03
CCOC(=O)CCNc1cc(N2CCc3ccccc3CC2)nc(-c2ccccn2)n1	1.07	1.03
COc1ccc2[nH]c([S+]([O-])Cc3ncc(C)c(OC)c3C)nc2n1 (centres undefined)	0.776	1.01
O=S(=O)(Nc1ccc(C(O)(C(F)(F)F)C(F)(F)F)cc1)c1cccs1	0.923	0.893
COc1ccccc1C(=O)Nc1cc2c(cc1N1CCCC1)n(C)c(=O)n2C	0.799	0.715
CC(=O)C1=C(O)C=C2Oc3c(C(C)=O)c(O)c(C)c(O)c3[C@@]2(C)C1=O	0.981	0.95
C=C[C@]1(C)C[C@@H](OC(=O)CS[C@@H]2C[C@H]3CC[C@@H](C2)N3C)[C@]2(C)[C@H](C)CC[C@]3(CCC(=O)[C@H]32)[C@@H](C)[C@@H]1O	0.651	0.685
O=c1cc(-c2ccccc2F)[nH]c2cc3c(cc12)OCO3	0.9	0.871
Oc1ncnc2[nH]ncc12	1.07	1.06
O=[N+]([O-])c1ccc(-c2nc(-c3ccc(F)cc3)c(-c3ccncc3)[nH]2)cc1	0.945	1.06
S=C(S)OC1CC2CC1C1CCCC21 (centres undefined)	0.932	0.997
CCOC(=O)C1=C[C@@H](OC(CC)CC)[C@H](NC(C)=O)[C@@H](N)C1	0.884	0.941
CNCCCC1c2ccccc2C=Cc2ccccc21	0.66 and 0.727	0.64 and 0.521
CC1(C)C(=O)C=C[C@]2(C)[C@H]3CC[C@@]4(C)[C@H](c5ccoc5)OC(=O)[C@H]5O[C@]54[C@]3(C)C(=O)C[C@@H]12	0.881	1.07
N#Cc1ccc(-c2cnc3[nH]cc(NC(=O)c4cccnc4)c3c2)cc1	0.79	0.81
C=CC(=O)Nc1cccc(C)c1Nc1ncc2cc(-c3c(Cl)c(OC)cc(OC)c3Cl)ccc2n1	0.603	0.512
C[C@]12CCC(=O)C=C1CC[C@@H]1[C@@H]2[C@@H](O)C[C@@]2(C)[C@H]1CC[C@]2(O)C(=O)CO	0.582	0.964
CCCc1cc(=O)[nH]c(=S)[nH]1	0.952	0.826
COc1ccc(CCN(C)CCCC(C#N)(c2ccc(OC)c(OC)c2)C(C)C)cc1OC (centres undefined)	0.949 and 0.749	0.869 and 0.745
Cc1onc(-c2ccccc2)c1-c1ccc(S(N)(=O)=O)cc1	0.782	0.781
O=C(Nc1ccccc1)c1cc([N+](=O)[O-])ccc1Cl	0.83	0.859

SMILES	PER2::LUC luminescence (time after treatment 24 h)	PER2::LUC luminescence (time after treatment 30 h)
C[N+]1(CCCCC[N+]2(C)CCCC2)CCCC1	1.1 and 0.745	1.02 and 0.836
C[C@H](NC(=O)C(C)(C)Oc1ccc(C(F)(F)F)cn1)[C@@H](Cc1ccc(Cl)cc1)c1cccc(C#N)c1	0.845	0.872
CC1=C(CCC(=O)O)c2cc3[nH]c(cc4nc(cc5[nH]c(cc1n2)c(C)c5C(C)O)C(C)=C4C(C)O)c(C)c3CCC(=O)O (centres undefined)	1	0.878
CO/N=C(\C(=O)N[C@@H]1C(=O)N2C(C(=O)OCOC(=O)C(C)(C)C)=C(/C=C\c3scnc3C)CS[C@H]12)c1csc(N)n1	0.978 and 1.02	1.01 and 0.913
Cc1sc(N)c(C(=O)c2cccc(C(F)(F)F)c2)c1C	1.02	0.959
c1ccc2c(Cc3c[nH]c4ccccc34)c[nH]c2c1	0.956 and 0.816	1.02 and 0.84
CN(N=O)C(=O)N[C@H]1C(O)O[C@H](CO)[C@@H](O)[C@@H]1O (mixture of isomers)	1.03	0.88
CCCCC(=O)O[C@H]1CC[C@H]2[C@@H]3CCc4cc(O)ccc4[C@H]3CC[C@]12C	1.15 and 1.11	1.09 and 1.07
N#Cc1c(O)c2c(-c3ccc(-c4ccccc4O)cc3)csc2[nH]c1=O	1.04 and 1.02	1.03 and 1
CC(C)n1cnc2c(NCc3ccccc3)nc(NCCCO)nc21	0.486	0.877
COc1ccc(/C=C/C(=O)O)cc1OC	0.982	0.92
NC(N)=Nc1nc(CSCCN/C=N/S(=O)(=O)c2ccc(Br)cc2)cs1	0.985	0.971
CC(=O)Nc1cc2ccccc2oc1=O	1.01	1.11
Cn1c(NCCN(CCO)CCCc2ccc([N+](=O)[O-])cc2)cc(=O)n(C)c1=O	0.973	0.998
N=C(N)SCCc1ccc(OCc2ccc([N+](=O)[O-])cc2)cc1	1.13	0.973
Cc1[nH]c2ccccc2c1CCNC(=O)c1cccs1	0.818	0.862
CC(C)CCC[C@@H](C)[C@H]1CC[C@H]2[C@@H]3CCC4=CC(=NO)CC[C@]4(C)[C@H]3CC[C@]12C	1.1	1.01
O=c1[nH]ccc2cc(OC3CCNCC3)ccc12	0.7	0.768
O=C(OC[C@H]1O[C@@H](OC(=O)c2cc(O)c(O)c(OC(=O)c3cc(O)c(O)c(O)c3)c2)[C@H](OC(=O)c2cc(O)c(O)c(OC(=O)c3cc(O)c(O)c(O)c3)c2)[C@@H](OC(=O)c2cc(O)c(O)c(OC(=O)c3cc(O)c(O)c(O)c3)c2)[C@@H]1OC(=O)c1cc(O)c(O)c(OC(=O)c2cc(O)c(O)c(O)c2)c1)c1cc(O)c(O)c(OC(=O)c2cc(O)c(O)c(O)c2)c1	0.819 and 0.4	0.789 and 0.554
N=C(N)c1ccc(OCCCCCOc2ccc(C(=N)N)cc2)cc1	0.8 and 0.821	0.848 and 0.8
Oc1ccc([C@H]2COc3cc(O)ccc3C2)cc1	1.09	1.25
Fc1ccc(C(c2ccc(F)cc2)N2CCN(C/C=C/c3ccccc3)CC2)cc1	0.842 and 0.7	0.666 and 0.796
CN1CCc2c(c3ccccc3n2Cc2ccccc2)C1	0.75 and 0.664	0.663 and 0.737
COc1ccc2oc(-c3ccccc3OC)cc(=O)c2c1	1.38	1.61
Cc1ccc(Nc2c(F)cccc2Cl)c(CC(=O)O)c1	1.09	1.21
COc1cccc2c1[C@@H]1CN(CCCCn3c(=O)[nH]c4c(sc5ncc(-c6ccccc6)nc54)c3=O)C[C@@H]1CO2	0.746	0.635
